# Laboratory results: the supplement of paper PMC8728848
# The list shows a part of the results.
# B1: Annexin-A1 (Mus musculus), P10107 (protein)
# chain: MAMVSEFLKQARFLENQEQEYVQAVKSYKGGPGSAVSPYPSFNVSSDVAALHKAIMVKGVDEATIIDILTKRTNAQRQQIKAAYLQENGKPLDEVLRKALTGHLEEVVLAMLKTPAQFDADELRGAMKGLGTDEDTLIEILTTRSNEQIREINRVYREELKRDLAKDITSDTSGDFRKALLALAKGDRCQDLSVNQDLADTDARALYEAGERRKGTDVNVFTTILTSRSFPHLRRVFQNYGKYSQHDMNKALDLELKGDIEKCLTTIVKCATSTPAFFAEKLYEAMKGAGTRHKALIRIMVSRSEIDMNEIKVFYQKKYGISLCQAILDETKGDYEKILVALCGGN
# What was measured:
# Experiment in all cases: glycan array binding signal (z-score within array); higher = stronger binding
# Details in all cases: glycan notation: IUPAC condensed, linker removed
# [1] = target: Fuc(a1-2)Gal
# Procedure, shortened: (§1)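 Columns mapping to the same glycan were averaged after glycan names were converted to IUPAC-condensed notation. The data come from 3228 arrays in the Consortium for Functional Glycomics database, limited to those with an available protein sequence. Binding is reported as a within-array Z-score averaged across arrays of one protein sequence and across linkers.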
# [2] = target: Fuc(a1-2)Gal(b1-3)GalNAc
# Procedure, shortened: as §1
# [3] = target: Fuc(a1-2)Gal(b1-3)GalNAc(b1-3)Gal
# Procedure, shortened: as §1
# [4] = target: Fuc(a1-2)Gal(b1-3)GalNAc(b1-3)Gal(a1-4)Gal(b1-4)Glc
# Procedure, shortened: as §1
# [5] = target: Fuc(a1-2)Gal(b1-3)GalNAc(b1-3)Gal(b1-4)Glc
# Procedure, shortened: as §1
# [6] = target: Fuc(a1-2)Gal(b1-3)GalNAc(b1-4)[Neu5Ac(a2-3)]Gal(b1-4)Glc
# Procedure, shortened: as §1
# [7] = target: Fuc(a1-2)Gal(b1-3)[Fuc(a1-4)]GlcNAc
# Procedure, shortened: as §1
# [8] = target: Fuc(a1-2)Gal(b1-4)Glc
# Procedure, shortened: as §1
# [9] = target: Fuc(a1-2)Gal(b1-4)Glc6S
# Procedure, shortened: as §1
# [10] = target: Fuc(a1-2)Gal(b1-4)GlcNAc
# Procedure, shortened: as §1
# [11] = target: Fuc(a1-2)Gal(b1-4)GlcNAc(b1-3)Gal(b1-4)GlcNAc
# Procedure, shortened: as §1
# [12] = target: Fuc(a1-2)Gal(b1-4)GlcNAc(b1-3)Gal(b1-4)GlcNAc(b1-3)Gal(b1-4)GlcNAc
# Procedure, shortened: as §1
# [13] = target: Fuc(a1-2)Gal(b1-4)GlcNAc6S
# Procedure, shortened: as §1
# [14] = target: Fuc(a1-2)Gal(b1-4)[Fuc(a1-3)]GalNAc(b1-3)Gal(b1-4)[Fuc(a1-3)]GlcNAc
# Procedure, shortened: as §1
# [15] = target: Fuc(a1-2)Gal(b1-4)[Fuc(a1-3)]GalNAc(b1-3)Gal(b1-4)[Fuc(a1-3)]GlcNAc(b1-3)Gal(b1-4)[Fuc(a1-3)]GalNAc
# Procedure, shortened: as §1
# [16] = target: Fuc(a1-2)Gal(b1-4)[Fuc(a1-3)]GlcNAc
# Procedure, shortened: as §1
# [17] = target: Fuc(a1-2)Gal6S(b1-4)Glc
# Procedure, shortened: as §1
# [18] = target: Fuc(a1-2)Gal6S(b1-4)Glc6S
# Procedure, shortened: as §1
# [19] = target: Fuc(a1-2)Gal6S(b1-4)GlcNAc
# Procedure, shortened: as §1
# [20] = target: Fuc(a1-2)GlcNAc
# Procedure, shortened: as §1
# [21] = target: Fuc(a1-2)[Gal(a1-3)]Gal
# Procedure, shortened: as §1
# [22] = target: Fuc(a1-2)[Gal(a1-3)]Gal(b1-3)GlcNAc
# Procedure, shortened: as §1
# [23] = target: Fuc(a1-2)[Gal(a1-3)]Gal(b1-4)Glc
# Procedure, shortened: as §1
# [24] = target: Fuc(a1-2)[Gal(a1-3)]Gal(b1-4)GlcNAc
# Procedure, shortened: as §1
# [25] = target: Fuc(a1-2)[Gal(a1-3)]Gal(b1-4)[Fuc(a1-3)]GlcNAc
# Procedure, shortened: as §1
# [26] = target: Fuc(a1-2)[Gal(a1-4)]Gal(b1-4)GalNAc
# Procedure, shortened: as §1
# [27] = target: Fuc(a1-2)[GalNAc(a1-3)]Gal
# Procedure, shortened: as §1
# [28] = target: Fuc(a1-2)[GalNAc(a1-3)]Gal(b1-3)GlcNAc
# Procedure, shortened: as §1
# [29] = target: Fuc(a1-2)[GalNAc(a1-3)]Gal(b1-4)Glc
# Procedure, shortened: as §1
# [30] = target: Fuc(a1-2)[GalNAc(a1-3)]Gal(b1-4)GlcNAc
# Procedure, shortened: as §1
# [31] = target: Fuc(a1-2)[GalNAc(a1-3)]Gal(b1-4)[Fuc(a1-3)]GlcNAc
# Procedure, shortened: as §1
# [32] = target: Fuc(a1-2)[GalNAc(a1-4)]Gal(b1-4)GlcNAc
# Procedure, shortened: as §1
# [33] = target: Fuc(a1-3)GlcNAc
# Procedure, shortened: as §1
# [34] = target: Fuc(a1-3)[Gal(b1-4)]Glc6S
# Procedure, shortened: as §1
# [35] = target: Fuc(a1-3)[Gal(b1-4)]GlcNAc
# Procedure, shortened: as §1
# [36] = target: Fuc(a1-3)[Gal(b1-4)]GlcNAc(b1-3)Gal(b1-3)[Fuc(a1-4)]GlcNAc
# Procedure, shortened: as §1
# [37] = target: Fuc(a1-3)[Gal(b1-4)]GlcNAc(b1-4)Gal(b1-4)[Fuc(a1-3)]GlcNAc
# Procedure, shortened: as §1
# [38] = target: Fuc(a1-3)[Gal(b1-4)]GlcNAc(b1-4)Gal(b1-4)[Fuc(a1-3)]GlcNAc(b1-4)Gal(b1-4)[Fuc(a1-3)]GlcNAc
# Procedure, shortened: as §1
# [39] = target: Fuc(a1-3)[Gal(b1-4)]GlcNAc6S
# Procedure, shortened: as §1
# [40] = target: Fuc(a1-3)[Gal3S(b1-4)]Glc
# Procedure, shortened: as §1
# [41] = target: Fuc(a1-3)[Gal3S(b1-4)]Glc6S
# Procedure, shortened: as §1
# [42] = target: Fuc(a1-3)[Gal3S(b1-4)]GlcNAc
# Procedure, shortened: as §1
# [43] = target: Fuc(a1-3)[Gal3S(b1-4)]GlcNAc6S
# Procedure, shortened: as §1
# [44] = target: Fuc(a1-3)[GalNAc(b1-4)]Gal(b1-4)GlcNAc
# Procedure, shortened: as §1
# [45] = target: Fuc(a1-4)GlcNAc
# Procedure, shortened: as §1
# [46] = target: Fuc(b1-3)GlcNAc
# Procedure, shortened: as §1
# [47] = target: Gal(a1-2)Gal
# Procedure, shortened: as §1
# [48] = target: Gal(a1-3)Gal
# Procedure, shortened: as §1
# [49] = target: Gal(a1-3)Gal(b1-3)Glc
# Procedure, shortened: as §1
# [50] = target: Gal(a1-3)Gal(b1-3)GlcNAc
# Procedure, shortened: as §1
# [51] = target: Gal(a1-3)Gal(b1-4)GlcNAc
# Procedure, shortened: as §1
# [52] = target: Gal(a1-3)Gal(b1-4)[Fuc(a1-3)]GalNAc
# Procedure, shortened: as §1
# [53] = target: Gal(a1-3)GlcNAc
# Procedure, shortened: as §1
# [54] = target: Gal(a1-3)[Gal(a1-4)]Gal(b1-4)GlcNAc
# Procedure, shortened: as §1
# [55] = target: Gal(a1-4)Gal(b1-4)Gal
# Procedure, shortened: as §1
# [56] = target: Gal(a1-4)Gal(b1-4)GalNAc
# Procedure, shortened: as §1
# [57] = target: Gal(a1-4)GlcNAc
# Procedure, shortened: as §1
# [58] = target: Gal(a1-6)Glc
# Procedure, shortened: as §1
# [59] = target: Gal(b1-2)Gal
# Procedure, shortened: as §1
# [60] = target: Gal(b1-3)Gal
# Procedure, shortened: as §1
binder,measurement,setting,value
B1,glycan array binding signal (z-score),[1],0.35
same,glycan array binding signal (z-score),[2],-0.51
same,glycan array binding signal (z-score),[3],0.204
same,glycan array binding signal (z-score),[4],-0.149
same,glycan array binding signal (z-score),[5],-0.585
same,glycan array binding signal (z-score),[6],-0.287
same,glycan array binding signal (z-score),[7],-0.686
same,glycan array binding signal (z-score),[8],-0.012
same,glycan array binding signal (z-score),[9],1.79
same,glycan array binding signal (z-score),[10],-0.292
same,glycan array binding signal (z-score),[11],-0.021
same,glycan array binding signal (z-score),[12],-0.656
same,glycan array binding signal (z-score),[13],0.24
same,glycan array binding signal (z-score),[14],0.2
same,glycan array binding signal (z-score),[15],-0.308
same,glycan array binding signal (z-score),[16],-0.239
same,glycan array binding signal (z-score),[17],-0.374
same,glycan array binding signal (z-score),[18],1.58
same,glycan array binding signal (z-score),[19],-0.152
same,glycan array binding signal (z-score),[20],-0.535
same,glycan array binding signal (z-score),[21],-0.42
same,glycan array binding signal (z-score),[22],-0.619
same,glycan array binding signal (z-score),[23],0.19
same,glycan array binding signal (z-score),[24],-0.684
same,glycan array binding signal (z-score),[25],-0.018
same,glycan array binding signal (z-score),[26],-0.522
same,glycan array binding signal (z-score),[27],-0.448
same,glycan array binding signal (z-score),[28],-0.149
same,glycan array binding signal (z-score),[29],0.169
same,glycan array binding signal (z-score),[30],-0.422
same,glycan array binding signal (z-score),[31],-0.423
same,glycan array binding signal (z-score),[32],-0.458
same,glycan array binding signal (z-score),[33],-0.581
same,glycan array binding signal (z-score),[34],-0.369
same,glycan array binding signal (z-score),[35],-0.288
same,glycan array binding signal (z-score),[36],0.388
same,glycan array binding signal (z-score),[37],-0.418
same,glycan array binding signal (z-score),[38],-0.486
same,glycan array binding signal (z-score),[39],-0.304
same,glycan array binding signal (z-score),[40],-0.177
same,glycan array binding signal (z-score),[41],1.11
same,glycan array binding signal (z-score),[42],-0.087
same,glycan array binding signal (z-score),[43],1.69
same,glycan array binding signal (z-score),[44],-0.444
same,glycan array binding signal (z-score),[45],-0.485
same,glycan array binding signal (z-score),[46],-0.455
same,glycan array binding signal (z-score),[47],0.257
same,glycan array binding signal (z-score),[48],0.339
same,glycan array binding signal (z-score),[49],0.066
same,glycan array binding signal (z-score),[50],0.062
same,glycan array binding signal (z-score),[51],0.064
same,glycan array binding signal (z-score),[52],-0.256
same,glycan array binding signal (z-score),[53],-0.249
same,glycan array binding signal (z-score),[54],-0.43
same,glycan array binding signal (z-score),[55],0.574
same,glycan array binding signal (z-score),[56],0.06
same,glycan array binding signal (z-score),[57],-0.321
same,glycan array binding signal (z-score),[58],1.29
same,glycan array binding signal (z-score),[59],0.027
same,glycan array binding signal (z-score),[60],0.003
